# Test results: the supplement of paper PMC8728848
# This is one part of the list.
# B1: AAL (Agrocybe aegerita), Q6WY08 (protein)
# chain: MQGVNIYNISAGTSVDLAAPVTTGDIVTFFSSALNLNAGAGNPNNTTLNLFAENGAYLLHIAFRLQENVIIFNSRQPDGPWLVEQRVSDVANQFAGIDGKAMVTVFDHGDKYQVVINEKTVIQYTKQISGLTLSLSYNATEETSIFSTVVEAVTYTGLALEHHHHHH
# Experiments:
# Test in all cases: glycan array binding signal (z-score within array); higher = stronger binding
# Details in all cases: glycan notation: IUPAC condensed, linker removed
# [1] = molecular target: Fuc(a1-2)Gal(b1-4)GlcNAc(b1-2)[Fuc(a1-2)Gal(b1-4)GlcNAc(b1-4)]Man(a1-3)[Fuc(a1-2)Gal(b1-4)GlcNAc(b1-2)Man(a1-6)]Man(b1-4)GlcNAc(b1-4)GlcNAc
# Method in brief: (§1)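 The binding signal is a Z-score computed within each array and averaged over linkers. Arrays of the same protein sequence at different concentrations or buffers were also averaged together. Data originate from 3228 arrays in the Consortium for Functional Glycomics database, kept only where the protein sequence was available.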
# [2] = molecular target: Fuc(a1-2)Gal(b1-4)GlcNAc(b1-3)Gal(b1-4)GlcNAc
# Method in brief: as §1
# [3] = molecular target: Fuc(a1-2)Gal(b1-4)GlcNAc(b1-3)Gal(b1-4)GlcNAc(b1-2)Man(a1-3)[Fuc(a1-2)Gal(b1-4)GlcNAc(b1-3)Gal(b1-4)GlcNAc(b1-2)Man(a1-6)]Man(b1-4)GlcNAc(b1-4)GlcNAc
# Method in brief: as §1
# [4] = molecular target: Fuc(a1-2)Gal(b1-4)GlcNAc(b1-3)Gal(b1-4)GlcNAc(b1-3)Gal(b1-4)GlcNAc
# Method in brief: as §1
# [5] = molecular target: Fuc(a1-2)Gal(b1-4)GlcNAc(b1-3)GalNAc
# Method in brief: as §1
# [6] = molecular target: Fuc(a1-2)Gal(b1-4)GlcNAc(b1-3)[Fuc(a1-2)Gal(b1-4)GlcNAc(b1-6)]GalNAc
# Method in brief: as §1
# [7] = molecular target: Fuc(a1-2)Gal(b1-4)GlcNAc(b1-3)[Fuc(a1-3)[Gal(b1-4)]GlcNAc(b1-6)]Gal(b1-4)Glc
# Method in brief: as §1
# [8] = molecular target: Fuc(a1-2)Gal(b1-4)GlcNAc(b1-6)GalNAc
# Method in brief: as §1
# [9] = molecular target: Fuc(a1-2)Gal(b1-4)GlcNAc6S
# Method in brief: as §1
# [10] = molecular target: Fuc(a1-2)Gal(b1-4)[Fuc(a1-3)]GlcNAc
# Method in brief: as §1
# [11] = molecular target: Fuc(a1-2)Gal(b1-4)[Fuc(a1-3)]GlcNAc(b1-2)Man(a1-3)[Fuc(a1-2)Gal(b1-4)[Fuc(a1-3)]GlcNAc(b1-2)Man(a1-6)]Man(b1-4)GlcNAc(b1-4)GlcNAc
# Method in brief: as §1
# [12] = molecular target: Fuc(a1-2)Gal(b1-4)[Fuc(a1-3)]GlcNAc(b1-2)Man(a1-3)[Fuc(a1-2)Gal(b1-4)[Fuc(a1-3)]GlcNAc(b1-2)Man(a1-6)]Man(b1-4)GlcNAc(b1-4)[Fuc(a1-6)]GlcNAc
# Method in brief: as §1
# [13] = molecular target: Fuc(a1-2)Gal(b1-4)[Fuc(a1-3)]GlcNAc(b1-2)[Fuc(a1-2)Gal(b1-4)[Fuc(a1-3)]GlcNAc(b1-4)]Man(a1-3)[Fuc(a1-2)Gal(b1-4)[Fuc(a1-3)]GlcNAc(b1-2)Man(a1-6)]Man(b1-4)GlcNAc(b1-4)GlcNAc
# Method in brief: as §1
# [14] = molecular target: Fuc(a1-2)Gal(b1-4)[Fuc(a1-3)]GlcNAc(b1-3)Gal(b1-4)[Fuc(a1-3)]GlcNAc
# Method in brief: as §1
# [15] = molecular target: Fuc(a1-2)Gal(b1-4)[Fuc(a1-3)]GlcNAc(b1-3)Gal(b1-4)[Fuc(a1-3)]GlcNAc(b1-3)Gal(b1-4)[Fuc(a1-3)]GlcNAc
# Method in brief: as §1
# [16] = molecular target: Fuc(a1-2)Gal(b1-4)[Fuc(a1-3)]GlcNAc(b1-3)GalNAc
# Method in brief: as §1
# [17] = molecular target: Fuc(a1-2)Gal(b1-4)[Fuc(a1-3)]GlcNAc(b1-3)[Neu5Ac(a2-6)Gal(b1-4)GlcNAc(b1-6)]Gal(b1-4)Glc
# Method in brief: as §1
# [18] = molecular target: Fuc(a1-2)Gal3S(b1-4)GlcNAc
# Method in brief: as §1
# [19] = molecular target: Fuc(a1-2)Gal6S(b1-3)GlcNAc
# Method in brief: as §1
# [20] = molecular target: Fuc(a1-2)Gal6S(b1-3)GlcNAc6S
# Method in brief: as §1
# Fuc(a1-2)Gal6S(b1-4)Glc = molecular target: Fuc(a1-2)Gal6S(b1-4)Glc
# Method in brief: as §1
# [21] = molecular target: Fuc(a1-2)Gal6S(b1-4)Glc6S
# Method in brief: as §1
# [22] = molecular target: Fuc(a1-2)Gal6S(b1-4)GlcNAc
# Method in brief: as §1
# Fuc(a1-2)[Gal(a1-3)]Gal = molecular target: Fuc(a1-2)[Gal(a1-3)]Gal
# Method in brief: as §1
# [23] = molecular target: Fuc(a1-2)[Gal(a1-3)]Gal(b1-3)GalNAc
# Method in brief: as §1
# [24] = molecular target: Fuc(a1-2)[Gal(a1-3)]Gal(b1-3)GalNAc(b1-3)Gal(a1-4)Gal(b1-4)Glc
# Method in brief: as §1
# [25] = molecular target: Fuc(a1-2)[Gal(a1-3)]Gal(b1-3)GlcNAc
# Method in brief: as §1
# [26] = molecular target: Fuc(a1-2)[Gal(a1-3)]Gal(b1-3)GlcNAc(b1-2)Man(a1-3)[Fuc(a1-2)[Gal(a1-3)]Gal(b1-3)GlcNAc(b1-2)Man(a1-6)]Man(b1-4)GlcNAc(b1-4)GlcNAc
# Method in brief: as §1
# [27] = molecular target: Fuc(a1-2)[Gal(a1-3)]Gal(b1-3)GlcNAc(b1-2)Man(a1-3)[Fuc(a1-2)[Gal(a1-3)]Gal(b1-3)GlcNAc(b1-2)Man(a1-6)]Man(b1-4)GlcNAc(b1-4)[Fuc(a1-6)]GlcNAc
# Method in brief: as §1
# [28] = molecular target: Fuc(a1-2)[Gal(a1-3)]Gal(b1-3)GlcNAc(b1-3)GalNAc
# Method in brief: as §1
binder,measurement,setting,value
B1,glycan array binding signal (z-score),[1],-0.119
same,glycan array binding signal (z-score),[2],-0.138
same,glycan array binding signal (z-score),[3],-0.083
same,glycan array binding signal (z-score),[4],-0.159
same,glycan array binding signal (z-score),[5],-0.145
same,glycan array binding signal (z-score),[6],-0.079
same,glycan array binding signal (z-score),[7],-0.149
same,glycan array binding signal (z-score),[8],-0.116
same,glycan array binding signal (z-score),[9],-0.134
same,glycan array binding signal (z-score),[10],-0.147
same,glycan array binding signal (z-score),[11],-0.15
same,glycan array binding signal (z-score),[12],-0.118
same,glycan array binding signal (z-score),[13],-0.101
same,glycan array binding signal (z-score),[14],-0.152
same,glycan array binding signal (z-score),[15],-0.144
same,glycan array binding signal (z-score),[16],-0.139
same,glycan array binding signal (z-score),[17],-0.107
same,glycan array binding signal (z-score),[18],-0.147
same,glycan array binding signal (z-score),[19],-0.124
same,glycan array binding signal (z-score),[20],-0.107
same,glycan array binding signal (z-score),Fuc(a1-2)Gal6S(b1-4)Glc,-0.153
same,glycan array binding signal (z-score),[21],-0.143
same,glycan array binding signal (z-score),[22],-0.157
same,glycan array binding signal (z-score),Fuc(a1-2)[Gal(a1-3)]Gal,-0.145
same,glycan array binding signal (z-score),[23],-0.029
same,glycan array binding signal (z-score),[24],-0.097
same,glycan array binding signal (z-score),[25],-0.126
same,glycan array binding signal (z-score),[26],-0.158
same,glycan array binding signal (z-score),[27],-0.119
same,glycan array binding signal (z-score),[28],-0.119
